{"source": "the supplement of paper PMC8728848", "assay_in_all_cases": "glycan array binding signal (z-score within array); higher = stronger binding", "details_in_all_cases": "glycan notation: IUPAC condensed, linker removed", "key": {"[1]": {"molecular_target": "Neu5Ac(a2-3)Gal(b1-4)[Fuc(a1-3)]GlcNAc6S", "method_in_brief": "(§1)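 Glycan array data came from 3228 arrays in the Consortium for Functional Glycomics database, and only arrays with an available protein sequence were kept. Glycan names were put into IUPAC-condensed notation, and columns mapping to the same glycan were averaged. The binding signal is a within-array Z-score, averaged across arrays of one protein sequence run at different concentrations or buffers and across linkers. A negative Z-score can be read as non-binding.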"}, "[2]": {"molecular_target": "Neu5Ac(a2-3)Gal6S(b1-4)GlcNAc", "method_in_brief": "as §1"}, "[3]": {"molecular_target": "Neu5Ac(a2-3)Gal6S(b1-4)[Fuc(a1-3)]GlcNAc", "method_in_brief": "as §1"}, "Neu5Ac(a2-3)GalNAc": {"molecular_target": "Neu5Ac(a2-3)GalNAc", "method_in_brief": "as §1"}, "[4]": {"molecular_target": "Neu5Ac(a2-3)GalNAc(b1-4)GlcNAc", "method_in_brief": "as §1"}, "[5]": {"molecular_target": "Neu5Ac(a2-3)[GalNAc(b1-4)]Gal(b1-4)Glc", "method_in_brief": "as §1"}, "[6]": {"molecular_target": "Neu5Ac(a2-3)[GalNAc(b1-4)]Gal(b1-4)GlcNAc", "method_in_brief": "as §1"}, "[7]": {"molecular_target": "Neu5Ac(a2-3)[Neu5Ac(a2-6)]GalNAc", "method_in_brief": "as §1"}, "Neu5Ac(a2-6)Gal": {"molecular_target": "Neu5Ac(a2-6)Gal", "method_in_brief": "as §1"}, "Neu5Ac(a2-6)Gal(b1-4)Glc": {"molecular_target": "Neu5Ac(a2-6)Gal(b1-4)Glc", "method_in_brief": "as §1"}, "[8]": {"molecular_target": "Neu5Ac(a2-6)Gal(b1-4)GlcNAc", "method_in_brief": "as §1"}, "[9]": {"molecular_target": "Neu5Ac(a2-6)Gal(b1-4)GlcNAc(b1-2)Man(a1-3)[Neu5Ac(a2-6)Gal(b1-4)GlcNAc(b1-2)Man(a1-6)]Man(b1-4)GlcNAc(b1-4)GlcNAc", "method_in_brief": "as §1"}, "[10]": {"molecular_target": "Neu5Ac(a2-6)Gal(b1-4)GlcNAc(b1-3)Gal(b1-4)GlcNAc", "method_in_brief": "as §1"}, "[11]": {"molecular_target": "Neu5Ac(a2-6)Gal(b1-4)GlcNAc(b1-3)Gal(b1-4)[Fuc(a1-3)]GlcNAc(b1-3)Gal(b1-4)[Fuc(a1-3)]GlcNAc", "method_in_brief": "as §1"}, "[12]": {"molecular_target": "Neu5Ac(a2-6)Gal(b1-4)GlcNAc6S", "method_in_brief": "as §1"}, "Neu5Ac(a2-6)GalNAc": {"molecular_target": "Neu5Ac(a2-6)GalNAc", "method_in_brief": "as §1"}, "[13]": {"molecular_target": "Neu5Ac(a2-6)GalNAc(b1-4)GlcNAc", "method_in_brief": "as §1"}, "Neu5Ac(a2-8)Neu5Ac": {"molecular_target": "Neu5Ac(a2-8)Neu5Ac", "method_in_brief": "as §1"}, "[14]": {"molecular_target": "Neu5Ac(a2-8)Neu5Ac(a2-3)Gal(b1-4)Glc", "method_in_brief": "as §1"}, "[15]": {"molecular_target": "Neu5Ac(a2-8)Neu5Ac(a2-3)[GalNAc(b1-4)]Gal(b1-4)Glc", "method_in_brief": "as §1"}, "[16]": {"molecular_target": "Neu5Ac(a2-8)Neu5Ac(a2-8)Neu5Ac", "method_in_brief": "as §1"}, "[17]": {"molecular_target": "Neu5Ac(a2-8)Neu5Ac(a2-8)Neu5Ac(a2-3)Gal(b1-4)Glc", "method_in_brief": "as §1"}, "[18]": {"molecular_target": "Neu5Ac(a2-8)Neu5Ac(a2-8)Neu5Ac(a2-3)[GalNAc(b1-4)]Gal(b1-4)Glc", "method_in_brief": "as §1"}, "[19]": {"molecular_target": "Neu5Ac(a2-8)Neu5Ac(a2-8)Neu5Ac(a2-8)Neu5Ac(a2-3)[GalNAc(b1-4)]Gal(b1-4)Glc", "method_in_brief": "as §1"}, "Neu5Ac(b1-6)GalNAc": {"molecular_target": "Neu5Ac(b1-6)GalNAc", "method_in_brief": "as §1"}, "[20]": {"molecular_target": "Neu5Ac(b2-6)Gal(b1-4)GlcNAc", "method_in_brief": "as §1"}, "[21]": {"molecular_target": "Neu5Ac9Ac(a2-6)Gal(b1-4)GlcNAc", "method_in_brief": "as §1"}, "[22]": {"molecular_target": "Neu5Gc(a2-3)Gal(b1-3)GlcNAc", "method_in_brief": "as §1"}, "[23]": {"molecular_target": "Neu5Gc(a2-3)Gal(b1-3)[Fuc(a1-4)]GlcNAc", "method_in_brief": "as §1"}, "Neu5Gc(a2-3)Gal(b1-4)Glc": {"molecular_target": "Neu5Gc(a2-3)Gal(b1-4)Glc", "method_in_brief": "as §1"}, "[24]": {"molecular_target": "Neu5Gc(a2-3)Gal(b1-4)GlcNAc", "method_in_brief": "as §1"}, "[25]": {"molecular_target": "Neu5Gc(a2-3)Gal(b1-4)[Fuc(a1-3)]GlcNAc", "method_in_brief": "as §1"}, "[26]": {"molecular_target": "Neu5Gc(a2-6)Gal(b1-4)GlcNAc", "method_in_brief": "as §1"}, "Neu5Gc(a2-6)GalNAc": {"molecular_target": "Neu5Gc(a2-6)GalNAc", "method_in_brief": "as §1"}}, "note": "The list shows a part of the results.", "data": [{"binder": "CLEC-6 (Homo sapiens), Q8WXI8 (protein) MGLEKPQSKLEGGMHPQLIPSVIAVVFILLLSVCFIASCLVTHHNFSRCKRGTGVHKLEHHAKLKCIKEKSELKSAEGSTWNCCPIDWRAFQSNCYFPLTDNKTWAESERNCSGMGAHLMTISTEAEQNFIIQFLDRRLSYFLGLRDENAKGQWRWVDQTPFNPRRVFWHKNEPDNSQGENCVVLVYNQDKWAWNDVPCNFEASRICKIPGTTLN", "values": [{"measurement": "glycan array binding signal (z-score)", "setting": "[1]", "result": -0.308}, {"measurement": "glycan array binding signal (z-score)", "setting": "[2]", "result": -0.142}, {"measurement": "glycan array binding signal (z-score)", "setting": "[3]", "result": -0.143}, {"measurement": "glycan array binding signal (z-score)", "setting": "Neu5Ac(a2-3)GalNAc", "result": -0.207}, {"measurement": "glycan array binding signal (z-score)", "setting": "[4]", "result": -0.104}, {"measurement": "glycan array binding signal (z-score)", "setting": "[5]", "result": -0.359}, {"measurement": "glycan array binding signal (z-score)", "setting": "[6]", "result": -0.199}, {"measurement": "glycan array binding signal (z-score)", "setting": "[7]", "result": -0.182}, {"measurement": "glycan array binding signal (z-score)", "setting": "Neu5Ac(a2-6)Gal", "result": 0.085}, {"measurement": "glycan array binding signal (z-score)", "setting": "Neu5Ac(a2-6)Gal(b1-4)Glc", "result": -0.183}, {"measurement": "glycan array binding signal (z-score)", "setting": "[8]", "result": -0.221}, {"measurement": "glycan array binding signal (z-score)", "setting": "[9]", "result": 0.066}, {"measurement": "glycan array binding signal (z-score)", "setting": "[10]", "result": -0.227}, {"measurement": "glycan array binding signal (z-score)", "setting": "[11]", "result": 1.59}, {"measurement": "glycan array binding signal (z-score)", "setting": "[12]", "result": 0.02}, {"measurement": "glycan array binding signal (z-score)", "setting": "Neu5Ac(a2-6)GalNAc", "result": -0.305}, {"measurement": "glycan array binding signal (z-score)", "setting": "[13]", "result": -0.108}, {"measurement": "glycan array binding signal (z-score)", "setting": "Neu5Ac(a2-8)Neu5Ac", "result": -0.157}, {"measurement": "glycan array binding signal (z-score)", "setting": "[14]", "result": 0.063}, {"measurement": "glycan array binding signal (z-score)", "setting": "[15]", "result": -0.295}, {"measurement": "glycan array binding signal (z-score)", "setting": "[16]", "result": -0.085}, {"measurement": "glycan array binding signal (z-score)", "setting": "[17]", "result": -0.163}, {"measurement": "glycan array binding signal (z-score)", "setting": "[18]", "result": -0.333}, {"measurement": "glycan array binding signal (z-score)", "setting": "[19]", "result": -0.363}, {"measurement": "glycan array binding signal (z-score)", "setting": "Neu5Ac(b1-6)GalNAc", "result": -0.401}, {"measurement": "glycan array binding signal (z-score)", "setting": "[20]", "result": -0.352}, {"measurement": "glycan array binding signal (z-score)", "setting": "[21]", "result": -0.166}, {"measurement": "glycan array binding signal (z-score)", "setting": "[22]", "result": -0.288}, {"measurement": "glycan array binding signal (z-score)", "setting": "[23]", "result": -0.261}, {"measurement": "glycan array binding signal (z-score)", "setting": "Neu5Gc(a2-3)Gal(b1-4)Glc", "result": -0.164}, {"measurement": "glycan array binding signal (z-score)", "setting": "[24]", "result": -0.141}, {"measurement": "glycan array binding signal (z-score)", "setting": "[25]", "result": -0.188}, {"measurement": "glycan array binding signal (z-score)", "setting": "[26]", "result": -0.19}, {"measurement": "glycan array binding signal (z-score)", "setting": "Neu5Gc(a2-6)GalNAc", "result": 0.134}]}]}
